Sequences with one replicate were seen in a single cluster, so their values are uncertain.
Test system: ATP
Assay: switch fluorescence ratio, 500 uM ATP over buffer (Cy3 cluster intensity, sum of 5 cycles each) (fold (ratio)); higher = stronger signal-on switching upon ATP binding; sequences stand for … in TCGTCGGCAGCGTCAGATGTGTATAAGAGACAGTTTTTTTTTTTTTTTTTTTTTTTTT…TC
Settings: aptamer strand: ATP DNA aptamer (quencher-CACCTGGGGGAGTATTGCGGAGGAAGG + anchor), 100 nM annealed; ATP concentration: 500 uM; one replicate
Method in brief: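 Cy3-labelled switching-strand clusters on a modified Illumina MiSeq flow-cell were annealed to 100 nM quencher-labelled ATP aptamer and imaged first in selection buffer, then after 15 min with 500 uM ATP at 22 °C. NaOH stripping and re-annealing separated each of five buffer/ATP cycles, and clusters outside 100-1000 RFU were excluded. The fluorescence ratio sums target-cycle Cy3 intensity over buffer-cycle Cy3 intensity per cluster and averages it per switch-domain sequence.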
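Further: ATP exposure 15 min at 22 °C before imaging.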

TGGTACCCTG showed a switch fluorescence ratio of 0.973.

CGGGATTCCA showed a switch fluorescence ratio of 1.02.

With TTACTTTACG the switch fluorescence ratio was 1.37.

For GGTTGAAATT, the switch fluorescence ratio was 1.01.

AAAGAGCCAA gave a switch fluorescence ratio of 1.07.

With GCAACCAGGA the switch fluorescence ratio was 1.14.

For ATTGGGTTAA, the switch fluorescence ratio was 1.01.

AGTTCGTGTC gave a switch fluorescence ratio of 0.973.

Sequence CAAAGGAGGG has a switch fluorescence ratio of 1.

With TCATCACTCG the switch fluorescence ratio was 1.05.

With CTGACCAGTT the switch fluorescence ratio was 1.

Sequence GACAGGTGTC has a switch fluorescence ratio of 1.25.

GACGCGTAGC showed a switch fluorescence ratio of 1.06.

With GCGATGCAGT the switch fluorescence ratio was 1.14.

ACATCGCAAA gave a switch fluorescence ratio of 2.29.

GATAAACACA gave a switch fluorescence ratio of 1.03.

AAAGTCGACG showed a switch fluorescence ratio of 1.04.

In the case of GACGCCCCCA, the switch fluorescence ratio is reported as 2.05.

TTAGCACTCT was tested, and the switch fluorescence ratio was 1.

ATAGTAGTAA was tested, and the switch fluorescence ratio was 0.98.

ATGATAGCGC gave a switch fluorescence ratio of 1.01.

Sequence TTTTTGTGCC has a switch fluorescence ratio of 1.07.

In the case of ATGTTCAATT, the switch fluorescence ratio is reported as 0.936.

AGTCGGGATT gave a switch fluorescence ratio of 0.991.

In the case of CTGATGTTCA, the switch fluorescence ratio is reported as 0.988.

TTCGGGTCGT gave a switch fluorescence ratio of 1.03.

For GGAGGTCGTG, the switch fluorescence ratio was 0.995.

In the case of ATTTCAACTC, the switch fluorescence ratio is reported as 1.01.

For TGGTCGTAGG, the switch fluorescence ratio was 0.966.

With CTCTCAATGA the switch fluorescence ratio was 1.64.

In the case of AACTCATTTC, the switch fluorescence ratio is reported as 1.05.

TCTCTGGG showed a switch fluorescence ratio of 0.998.

With TGTTGTCATT the switch fluorescence ratio was 0.955.

With AACACCGGCC the switch fluorescence ratio was 1.57.

In the case of TACTCAGA, the switch fluorescence ratio is reported as 1.05.

ATAAGCCGGT gave a switch fluorescence ratio of 1.01.

In the case of GCTCTCGGGT, the switch fluorescence ratio is reported as 0.998.

In the case of AAGAGGAGAC, the switch fluorescence ratio is reported as 0.984.

With AAAATGGATC the switch fluorescence ratio was 1.07.

For ATTTGGAAGC, the switch fluorescence ratio was 1.02.

For TGAATGAGCC, the switch fluorescence ratio was 0.997.

Work on CCGCGCGCGG yielded a switch fluorescence ratio of 2.01.

TCAAGAGAT was tested, and the switch fluorescence ratio was 1.06.

With ATGTCTGATG the switch fluorescence ratio was 1.01.

TACACTTAGA was tested, and the switch fluorescence ratio was 1.06.

CTGTGAAATT showed a switch fluorescence ratio of 1.05.

ACGTAGAGTT gave a switch fluorescence ratio of 1.05.

With TCGATAATGG the switch fluorescence ratio was 0.969.

For CATTGGTCT, the switch fluorescence ratio was 0.996.

For GGTCGGCCTG, the switch fluorescence ratio was 0.967.

In the case of TGGTCGCTGT, the switch fluorescence ratio is reported as 1.06.

Sequence GCGGATGCTC has a switch fluorescence ratio of 1.06.

ATGACGTGTT gave a switch fluorescence ratio of 0.962.

With ACTCGTTTGT the switch fluorescence ratio was 0.969.

TAATCGAAGA was tested, and the switch fluorescence ratio was 1.06.

CAAGCAGCCC gave a switch fluorescence ratio of 1.06.

In the case of TCGCGTACAC, the switch fluorescence ratio is reported as 1.92.

CTCTAACCTG showed a switch fluorescence ratio of 1.07.

Work on GGATGCGGGG yielded a switch fluorescence ratio of 0.989.

Sequence TTACGTGGGT has a switch fluorescence ratio of 1.02.

GAAGTGTCG gave a switch fluorescence ratio of 1.1.

With AAGCAGTGTG the switch fluorescence ratio was 0.993.

CGTCATTATT was tested, and the switch fluorescence ratio was 1.03.

With ATGCGAGGA the switch fluorescence ratio was 1.05.

TTCATCGGGC was tested, and the switch fluorescence ratio was 1.03.

For GCCTCTGCCA, the switch fluorescence ratio was 1.63.

ACGAGGTGCG was tested, and the switch fluorescence ratio was 0.942.

TAGATAGGTG showed a switch fluorescence ratio of 1.06.

Work on TTTGAGATCG yielded a switch fluorescence ratio of 0.986.

GGGTTAAGAA gave a switch fluorescence ratio of 1.01.

TAAATCGGG gave a switch fluorescence ratio of 1.01.

In the case of TGAACATGGA, the switch fluorescence ratio is reported as 1.01.

In the case of GAGTAAAAAC, the switch fluorescence ratio is reported as 0.994.

In the case of AATAGGTTTC, the switch fluorescence ratio is reported as 0.973.

CGTAGACTAG gave a switch fluorescence ratio of 1.01.

TATTAGTGGA gave a switch fluorescence ratio of 1.

For GCCGCTAAGA, the switch fluorescence ratio was 1.24.

Work on TATGCTTAAG yielded a switch fluorescence ratio of 1.01.

AGCCGTGGCG was tested, and the switch fluorescence ratio was 0.946.

With ATCGATGATG the switch fluorescence ratio was 0.981.

ATATGCAG was tested, and the switch fluorescence ratio was 1.01.

With TCTAGACAGC the switch fluorescence ratio was 1.

Work on GCGTCACAAT yielded a switch fluorescence ratio of 1.03.

Work on TGATTGATA yielded a switch fluorescence ratio of 1.01.

Work on GATAGTGTGG yielded a switch fluorescence ratio of 1.09.

With CTTTAGTGTT the switch fluorescence ratio was 1.01.

For TGGGCCATCG, the switch fluorescence ratio was 1.02.

For ACCGGACGAC, the switch fluorescence ratio was 3.48.

AATCATCGCA showed a switch fluorescence ratio of 1.04.

TCACAGTTTC showed a switch fluorescence ratio of 1.03.

CACAGAGCAG showed a switch fluorescence ratio of 1.12.

Sequence ATTGCTAAGG has a switch fluorescence ratio of 1.01.

With TTTGCCTACC the switch fluorescence ratio was 1.28.

Work on ATATCCTGAA yielded a switch fluorescence ratio of 0.998.

In the case of ACGGGAATCT, the switch fluorescence ratio is reported as 1.03.

Sequence ACTACGTATT has a switch fluorescence ratio of 1.18.

In the case of GAGCTGATTG, the switch fluorescence ratio is reported as 0.999.

In the case of CAGATACGGG, the switch fluorescence ratio is reported as 0.991.

Work on ATCCCGCG yielded a switch fluorescence ratio of 1.12.

TGCTTAATAG showed a switch fluorescence ratio of 0.982.

Sequence ATGGCTAGTG has a switch fluorescence ratio of 0.943.

TTTTCGTCTG was tested, and the switch fluorescence ratio was 0.995.

With AACTGATATA the switch fluorescence ratio was 1.01.

Work on ACTGATGCGC yielded a switch fluorescence ratio of 1.03.

Sequence CATGGAGCTG has a switch fluorescence ratio of 0.994.

In the case of CCGGGTTCGG, the switch fluorescence ratio is reported as 0.988.

Work on TGCAAGGGGA yielded a switch fluorescence ratio of 0.984.

In the case of TCATAATCGC, the switch fluorescence ratio is reported as 1.03.

Sequence CTCTGCACCT has a switch fluorescence ratio of 2.84.

For CATAGATACT, the switch fluorescence ratio was 1.02.

CACTTAGCTG gave a switch fluorescence ratio of 1.06.

Sequence AGGGAGGTTC has a switch fluorescence ratio of 1.06.

TCGCGGAGTA was tested, and the switch fluorescence ratio was 0.971.

For GGTTTGATAA, the switch fluorescence ratio was 0.998.

With TACCGCTGCT the switch fluorescence ratio was 1.08.

For CGCCCTCGGT, the switch fluorescence ratio was 0.998.

AATGGGCATC gave a switch fluorescence ratio of 1.02.

In the case of AGGCAAGGGT, the switch fluorescence ratio is reported as 1.2.

With TGGTGTGTTG the switch fluorescence ratio was 0.862.

TCGGCCGATG showed a switch fluorescence ratio of 1.02.

ATTACAACTA was tested, and the switch fluorescence ratio was 1.01.

AGCTGGGATA showed a switch fluorescence ratio of 1.01.

ATTCAGACAG showed a switch fluorescence ratio of 0.995.

ATTAATTCAT was tested, and the switch fluorescence ratio was 0.979.

TTGTTATCCA showed a switch fluorescence ratio of 0.989.

Sequence TTAAATGAGT has a switch fluorescence ratio of 1.06.

With ACGGGATAGT the switch fluorescence ratio was 1.09.

With CATACTAGAG the switch fluorescence ratio was 1.01.

With GCATGCGGAC the switch fluorescence ratio was 1.07.

Sequence ACGTCATTGT has a switch fluorescence ratio of 1.13.

With CATGGGAAGC the switch fluorescence ratio was 0.942.

With CACAACCCGC the switch fluorescence ratio was 1.07.

TCCAGCACGG gave a switch fluorescence ratio of 1.01.

TCAAGGTAAG gave a switch fluorescence ratio of 1.01.

In the case of GACAGTGGTG, the switch fluorescence ratio is reported as 0.982.

In the case of ATCGAAAGAA, the switch fluorescence ratio is reported as 0.961.

ACCGCTGGCA gave a switch fluorescence ratio of 1.06.

Sequence CTATATAACT has a switch fluorescence ratio of 0.98.

Work on TCTGAGTATG yielded a switch fluorescence ratio of 0.989.

GGAACCTTGT showed a switch fluorescence ratio of 1.09.

In the case of AGTGTAACA, the switch fluorescence ratio is reported as 1.03.

With TCAGGTCGTA the switch fluorescence ratio was 0.967.

For ATACTAATTA, the switch fluorescence ratio was 0.972.

In the case of AAGGCCGCTT, the switch fluorescence ratio is reported as 0.993.

In the case of GCGTGTAGTT, the switch fluorescence ratio is reported as 0.999.

With CGTAGAGATC the switch fluorescence ratio was 0.964.

TAATGGAGA gave a switch fluorescence ratio of 0.998.

For AAGTCCTGG, the switch fluorescence ratio was 1.07.

CCTTGGGTG was tested, and the switch fluorescence ratio was 1.49.

AAAGGTCCCC was tested, and the switch fluorescence ratio was 0.999.

GTTGTTGAAA was tested, and the switch fluorescence ratio was 0.975.

In the case of CTTTCTAAAT, the switch fluorescence ratio is reported as 1.01.

Work on CGAGTTCCTA yielded a switch fluorescence ratio of 0.992.

Work on GTAGGGTTTG yielded a switch fluorescence ratio of 0.988.

Sequence TTTGAGGA has a switch fluorescence ratio of 1.06.

Work on ACGTAGGAAT yielded a switch fluorescence ratio of 1.02.

For TAGAGCTCT, the switch fluorescence ratio was 0.973.

— the supplement of paper PMC10126150
